In the RNAGym collection of RNA variant scans (doi:10.1093/nar/gkz1192):
The source gives no read counts; variants with many changes may rest on few reads.

B1: CPEB3 Ribozyme (parent)
chain: UAACAGGGGGCCACAGCAGAAGCGUUCACGUCGCAGCCCCUGUCAGAUUCUGGUGAAUCUGCGAAUUCUGCUGUAUAUCUC

Variants of: B1
Experiment: self-cleavage, relative activity (ratio to wild type); higher = more cleavage; in vitro, sequencing
How it was run: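 Relative activity compares each variant's cleaved/total read fraction with that of the unmutated ribozyme. To get these fractions, barcoded CPEB3 ribozyme libraries from rounds of error-prone PCR were transcribed with T7 RNA polymerase for 5 hours at 37°C and then given 15 min of DNase I treatment before EDTA was added. The RNAs were reverse transcribed with template switching and sequenced on Illumina, and DNA sequencing linked barcodes to variants. A minimum of 5 reads applied, and three batches were averaged.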

Variant	self-cleavage
UAACAGAGGGCCACAGCAGAAGCGUUCGCGACGCAGCCCCAGUCAGAUUCUGGUGAGUCUGCGGAUUCUGCUGUAUAUCUC [G7A A28G U31A U41A A57G A64G]	0.05
UAACAGAGGGCCACAGCAGAAGCGUUCACGUCGCAGCCCCUGUCUGAUUCUGGUGGAUCUGCGAAUUCUGCUGUAUAUCUC [G7A A45U A56G]	0.01
UAACAGAGGGCCACAGCAGUAGCGUUCACGUCGCAGCCCCUGUCAGAUUCUGGUGAAUCUGCGAAUUCUCCUGUAUAUCUC [G7A A20U G70C]	0.06
UAACAGAGGGCCACAGCAGAAGCGUUCACGUCGCUGCCCCUGUCAGAUUCUGGUGAAUCUGCGAAUUCUGCUGUAUACCCC [G7A A35U U78C U80C]	0.05
UAACAGAGGGCCACAGCAGAAGCGUUCUCGUCGCAGCCCCUGUCAGAUUCUGGAGAAUCUGCGAAUUCUGCCGUAUAUCUC [G7A A28U U54A U72C]	0.18
UAACAGAGGGCCACAGCAGAAGCGUUCGCGUCGCAGCCCCCGUCAGAUUCUGGUGGAUCUGCGAGUUCCGCUGUAUAUCUC [G7A A28G U41C A56G A65G U69C]	0.03
UAACAGAGGGCCACAGCAGAAGCGUUCGCGUCGCGGCCCCUGUCAGAUUCUGGUGAAUCUGCGAAUUCUGCUGUAUAUCUC [G7A A28G A35G]	0.14
UAACAGAGGGCCACAGCAGAAGCGUUCUCGUCGCAGCCCCCGUCAGAUCCUGGUGGAUCUGCGAAUUCUGCUGUAUAUCUC [G7A A28U U41C U49C A56G]	0.06
UAACAGAGGGCCACAGCUGAAGCUUUCACGUCGCAGCCCCUGUCGGAUUCUGGUGGAUCUGCGAGUUCUGCUGUAUAUCUC [G7A A18U G24U A45G A56G A65G]	0.04
UAACAGAGGGGCACAGCGGAAGCGUUCACGACGCAGCCCCUGUCAGAUUCUGGUGAAUCUGCGAAUUCUGCUGUAUAUCUC [G7A C11G A18G U31A]	0.05
UAACAGAGGGCCACAGCGGAAGCGUUCACGUCGCAGCCCCUGUCAGAUUCUGGUGAAUCUGCGAGUUCUGCUGUAUGUCUC [G7A A18G A65G A77G]	0.09
UAACAGAGGGCCACAGCAGAGGCGUUCACGUCGCAGCCACUGUCAGAUUCUGGUGAAUCUGCGAAUUCUGCUGUAUAUCUC [G7A A21G C39A]	0.38
UAACAGAGGGCCACAGCAGGAGCGUUCACGUGGCAGCCCCUGCCAGAUUCUGGUGAGUCUACGAAUUCUGUUGUAUAUCUC [G7A A20G C32G U43C A57G G61A C71U]	0.03
UAACAGAGGGCCACAGCCGAAGCGUUCACGUCGCAGCCCCUGUCAGUUCCUGGUGAAUCCGCGAAUUCUGCUGUAUAUCUC [G7A A18C A47U U49C U60C]	0.05
UAACAGAGGGCCACAGCAGGAGCGUUCACGACGCAGCCCCUGUCGGAUUCUGGCGAAUCUGCGAACUCUGCUGUAUAUCUC [G7A A20G U31A A45G U54C U66C]	0.07
UAACAGAGGGCCACAGCAGAAGCGUUCGCGUCGCAGCCCCUGUCGGGUUCUGGUGAAUCUGCGAAUUCUGCUGUAUAUCUC [G7A A28G A45G A47G]	0.12
UAACAGAGGGCCACAGCAGACGCGUCCACGUCGCAGCCCCUGUCAGAUUCUGGUGAAUCUGCGAACUCUGCUGUAUAUCUC [G7A A21C U26C U66C]	0.11

Variant	self-cleavage
UAACAGAGGGCCACAGCAGAAGCGUUCACGUCGCAGCCCCUGUCUGAUUCUGGUGAUUCUGCGAAUUCUGCUGUAUAUCUC [G7A A45U A57U]	0.19
UAACAGAGGGCCACUGCGGAAGCGUUCACGUCGCAGCCCUUGUCAGAUUCCGGUGAGUCCGCGAAUUCUGCUGUAUAUCUC [G7A A15U A18G C40U U51C A57G U60C]	0.03
UAACAGAGGGCCACAGCAGUAGCGUUCACGUCGCAGCCCCUGUCAGAUUCUGGUGAAUCUGCGAGUUCCGCUGUAUAUCUC [G7A A20U A65G U69C]	0.23
UAACAGAGGGCCACAGCAGAAGCGUUCACGUCGCAGCCCCUGUCAGAUUCUGGUGUAUCUGCGAAUUCUGCUGCAUAUCUC [G7A A56U U74C]	0.35
UAACAGAGGGCCACUGCAGAAGAGUACACGUCGCAGCCCCUGUCAGAUUCUGGCGAAUCUGCGAAUUCUGCUGUAUACCUC [G7A A15U C23A U26A U54C U78C]	0.03
UAACAGAGGGCCACAGCAGAAGCGUUCGCGUCGCAGCCCCUGUCAGAUUCUGGUGAAUCUGCGAAUUCUGCUGUAUAUCCC [G7A A28G U80C]	0.4
UAACAGAGGGCCACAGCAGAAGCGUUCACGUCGCUGCCCCUGUCAGAUUCUGGUGAGUCUGCGAAUUCUGCUGUAUAUCUC [G7A A35U A57G]	0.21
UAACAGAGGGCCACAGCAGAGGCGUUCACGUCGCGGCCCCCGUCAGAUUAUGGUGAAUCUGCGAAUUCUGCUGUAUAUCUC [G7A A21G A35G U41C C50A]	0.07
UAACAGAGGGCCACAGCAGAAGCGUUCACGUCGCAGCCCCUGUCAGAUUCUGGUGAAUCUGCGAAUUCUGCUGUUUAACUC [G7A A75U U78A]	0.08
UAACAGAGGGCCACAGCAGGAGCGUUCACGUCGCAGCCCCUGUCAGAUUCUGGUGAAUCUGCGAAUUCUGCUGUAAGUCUC [G7A A20G U76A A77G]	0.11
UAACAGAGGGUCACAGCAGAAGCGUUCACGUCGCAGCCCCUGUCAGAUUCUGGGGAAUCUGCGAAUUCUGCCGUAUAUCUC [G7A C11U U54G U72C]	0.07
UAACAGAGGGCCACAGCAGAAGCGUUCACGUCGCAGCCCCUGUCAGAUUCUGGUGAGUCUGCGAACUCUGCUGUAUAUCUC [G7A A57G U66C]	0.41
UAACAGAGGGCAACUGCAGAAGCGUUCACGUCGCAGCCCCUGUCAGAUUCGGGUGAAUCUGCGAAUUCUGCUGUAUAUCUC [G7A C12A A15U U51G]	0.08
UAACAGAGGGCCACAGCAGUAGCGUUCACGCCGCAGCCCCAGUCAGAUUCUGGUGAAUCUGCGAAUUCCGCCGUAUAUCUC [G7A A20U U31C U41A U69C U72C]	0.04
UAACAGAGGGCCACAGCAGAAGCGUUCACGUCGCAGCCCCUGUCGGUUUCUGGUGAAUCCGCGAAUUCUGCUGUAUAUCUC [G7A A45G A47U U60C]	0.06
UAACAGAGGGCCACAGCAGAAGCGUUCACGUCGCAGCCCCUGUCGGAUUCUGGUGGAUCUGCGAAUUCUGCUGUAUAUCUC [G7A A45G A56G]	0.21
UAACAGAGGGGCACAGCAGAAGCGUUCACGUCGCAGCCCCUGUCAGAUUCUGGUGAAUCUACGAAUCCUGCAGUAUAUCUC [G7A C11G G61A U67C U72A]	0.05
